# Experimental data as given in PubChem BioAssay AID686979 (National Center for Advancing Translational Sciences (NCATS), 2013).
# Screen size: about 420,000 compounds; about 50,000 (12%) were called active. Inconclusive results, whose numbers are uncertain, are shown with a selection of clear calls. Calls come from the whole dose curve; as a rule, active = well fitted inhibition curve with a large enough effect; inconclusive = small, poorly fitted or top-dose-only effect; inactive = flat fitted curve, though single readings scatter. Potencies beside an inconclusive call are fits to weak or partial responses and may not hold up.
# Assay: qHTS for Inhibitors of human tyrosyl-DNA phosphodiesterase 1 (TDP1): qHTS in cells in presence of CPT; note: nearly all actives have a fitted effect of over 55% in size
# Settings: chicken DT40 Tdp1-/-;hTDP1 cells + 20 nM CPT, ATP luminescence, 48 h
# Procedure, shortened: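 Cell growth measured by CellTiter-Glo luminescence after a minimum 48 h, 37 C compound exposure with 20 nM CPT in Tdp1-knockout DT40 cells stably expressing hTDP1, seeded 400/well; qHTS titration format.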
# [1] = activity change, negative = growth inhibition: at 46.2 µM (top of the series) unless noted
# % is set by controls: 0 for no effect and ±100 for the full control effect; potency is the fitted concentration of half-maximal effect; tags give direction and shape of the fitted curve.
smiles,measurement,setting,value
CCOC(=O)C1=CN(Cc2ccco2)S(=O)(=O)NC1c1cccc(OC)c1 (stereo not given),Potency,[1],"inconclusive: 8.2 µM [inhibitor, partial curve]"
COc1cc(/C=N/NC(=O)c2cccs2)ccc1O,Potency,[1],inactive
COc1ccc(-c2ccc([C@H]3[C@H]4C=CC[C@@H](C)[C@@H]4C(=O)N3Cc3ccccc3)c(F)c2)cc1C,Potency,[1],active: 14.6 µM
CC(NC(=O)c1cccc(S(=O)(=O)N2CCc3ccccc32)c1)c1ccco1 (stereo not given),Potency,[1],"inconclusive: 20.6 µM [inhibitor, single point]"
CCn1c2ccccc2c2cc(NC(=O)C(C)C)ccc21,Potency,[1],"inconclusive: 18.4 µM [inhibitor, single point]"
Cc1ccc2nc(NC(=O)CCNS(=O)(=O)c3ccc(Br)s3)sc2c1,Potency,[1],inactive
Cc1sc2nc(CSc3ccccc3)nc(NCCN(C)C)c2c1C,Potency,[1],"inconclusive: 32.6 µM [inhibitor, partial curve, poor fit]"
NC(=O)c1nsc(C(=O)N(CC(=O)NC2CCCCC2)Cc2ccc3c(c2)OCO3)c1N,Potency,[1],"inconclusive: 15.8 µM [inhibitor, single point]"
CN(C)c1nc(OCCNC(=O)Nc2ccccc2)nc(N2CCOCC2)n1,Potency,[1],active: 23.1 µM
Cc1csc(=O)n1CCC(=O)OCC(=O)Nc1ccc(Cl)cn1,Potency,[1],inactive
O=Cc1ccc2ccc3cccnc3c2n1,Potency,[1],active: 5.17 µM
COc1ccc(CN(C)S(=O)(=O)c2nnc(NC(=O)c3cccc(C)c3)s2)cc1OC,Potency,[1],inactive
Cc1c(C(=O)Nc2ccccc2)sc2nc(-c3cc4ccccc4oc3=O)[nH]c(=O)c12,Potency,[1],inactive
O=C(C1CCCN(S(=O)(=O)c2ccc(Cl)cc2)C1)N1CCCC1 (stereo not given),Potency,[1],"inconclusive: 10.3 µM [inhibitor, partial curve, poor fit]"
CC(C)(C)n1nnnc1C(c1cccs1)N1CCN(Cc2ccc3c(c2)OCO3)CC1 (stereo not given),Potency,[1],inactive
COc1ccc(Cl)cc1NC(=O)CNCc1cccs1,Potency,[1],inactive
COc1ccc(C2/C=C\CN(C(=O)C3CC3)[C@H](Cc3ccccc3)C(=O)N2Cc2ccc(F)cc2)cc1 (stereo not given in full),Potency,[1],active: 16.4 µM
CCc1ccc2oc(C(=O)Nc3cc(Cl)ccc3OC)cc(=O)c2c1,Potency,[1],inactive
CCOC(=O)C1(C)CCCN1C(=O)c1cc(F)ccc1C (stereo not given),Potency,[1],"inconclusive: 25.9 µM [inhibitor, single point]"
CCn1c(-c2ccccc2)csc1=Nc1ccc(O)cc1,Potency,[1],"inconclusive: 25.9 µM [inhibitor, single point]"
O=C1/C(=C\c2cccnc2)CN(Cc2ccccc2)C/C1=C\c1cccnc1,Potency,[1],active: 5.17 µM
COc1ccc(NS(=O)(=O)c2cccc(C(=O)NC3CCN(Cc4ccccc4)CC3)c2)cc1,Potency,[1],active: 14.6 µM
O=[N+]([O-])c1ccc(NC(=S)N2CCN(S(=O)(=O)c3ccccc3)CC2)cc1,Potency,[1],"inconclusive: 23.1 µM [inhibitor, single point]"
Cc1cc(C)c2nc(N(CCCN(C)C)C(=O)c3ccc4c(c3)CCCC4)sc2c1,Potency,[1],active: 20.6 µM
CC(=O)[C@@]1(O)CC[C@H]2[C@@H]3C[C@H](C)C4=CC(=O)C=C[C@]4(C)[C@@]3(F)[C@@H](O)C[C@@]21C,"activity change, negative = growth inhibition",[1],inconclusive: -30.9% [inhibitor] [at 21.1 µM]
same,"activity change, negative = growth inhibition",at 46.2 µM (top of the series),inactive: -27.1%
O=C(Nc1cccc(C(=O)N2CCN(c3ccccc3)CC2)c1)c1nsc2ccccc12,Potency,[1],"inconclusive: 25.9 µM [inhibitor, single point]"
CCc1ccc(C2=C(C)C(N3CCC(C(=O)Nc4ccc(F)cc4)CC3)=NS2(=O)=O)cc1,Potency,[1],"inconclusive: 23.1 µM [inhibitor, single point]"
Cc1nc2ccc(C(=O)N3CCN(c4ccccc4)CC3)cn2c1N(C)C(=O)CCc1ccccc1,Potency,[1],"inconclusive: 29.1 µM [inhibitor, single point]"
CCCC[C@@H]1CNC(=S)N1CCCc1cc(OC)c(OC)c(OC)c1,Potency,[1],"inconclusive: 29.1 µM [inhibitor, single point]"
COc1ccc(C(CNC(=O)COc2ccccc2)N2CCOCC2)cc1 (stereo not given),Potency,[1],inactive
Cc1ccc(NC(=O)CCn2nc(-c3ccccc3)c3ccccc3c2=O)c(C)c1,Potency,[1],active: 20.6 µM
COc1cc2cc(C(=O)N(C)Cc3ccccc3)[nH]c2cc1OC,Potency,[1],inactive
Cc1cc(C#Cc2c(-c3ccccc3)n(C)c3ccccc23)ccc1F,Potency,[1],"inconclusive: 14.6 µM [inhibitor, single point]"
CC(C)C(=O)NC(Nc1cccc([N+](=O)[O-])c1)C(Cl)(Cl)Cl (stereo not given),Potency,[1],"inconclusive: 20.6 µM [inhibitor, single point]"
COc1ccccc1CNC(=O)Nc1nc(C(N)Cc2ccc(Cl)cc2)cs1 (stereo not given),Potency,[1],"inconclusive: 29.1 µM [inhibitor, single point]"
C[C@@H]1CN([C@H](C)CO)C(=O)c2c(c3ccccc3n2C)-c2ccccc2CO[C@H]1CN(C)C(=O)CCC(F)(F)F,Potency,[1],"inconclusive: 25.9 µM [inhibitor, partial curve]"
CCN1CCN(c2ccc(S(=O)(=O)N3CCCCC3)cc2NC(=O)c2cccc(C(F)(F)F)c2)CC1,Potency,[1],"inconclusive: 23.1 µM [inhibitor, single point]"
CCn1ncc(CNC(=O)C2(C)CC2(Br)Br)c1C (stereo not given),Potency,[1],inactive
COc1ccc(-c2noc(N3CCC(C(=O)NCCCN4CCC(C)CC4)CC3)n2)cc1,Potency,[1],inactive
O=C(NN=Cc1cc(Cl)ccc1[N+](=O)[O-])c1cccc2ccccc12,Potency,[1],"inconclusive: 14.6 µM [inhibitor, single point]"
O=C(Nc1ccc2c(c1)OCCO2)C1C(c2ccccc2)=Nc2ccccc2N1C(=O)c1cccnc1 (stereo not given),Potency,[1],"inconclusive: 29.1 µM [inhibitor, single point]"
O=C(COc1ccc2ccccc2c1)NC1CC1,Potency,[1],"inconclusive: 29.1 µM [inhibitor, single point]"
CCOC(=O)C1(CC2CCCCO2)CCN(Cc2nc3ccccc3[nH]2)CC1 (stereo not given),Potency,[1],"inconclusive: 29.1 µM [inhibitor, single point]"
O=C(O)c1ccccc1SC1CC(=O)N(C2CCCCC2)C1=O (stereo not given),Potency,[1],"inconclusive: 23.1 µM [inhibitor, single point]"
